# In PubChem BioAssay AID1159614 (National Center for Advancing Translational Sciences (NCATS), 2016):
# In all, about 45,000 compounds went through this assay and about 65 (0.1%) were called active. Calls follow the shape of the dose curve; as a rule, active = well fitted activation curve with a large enough effect; inconclusive = small, poorly fitted or top-dose-only effect; inactive = no such curve, though single readings can be large or run the other way. The list shows a part of the results.
# Biological target: Galactocerebrosidase (Homo sapiens) (UniProt P54803)
# UniProt P54803, sequence (P54803 whole entry, looked up): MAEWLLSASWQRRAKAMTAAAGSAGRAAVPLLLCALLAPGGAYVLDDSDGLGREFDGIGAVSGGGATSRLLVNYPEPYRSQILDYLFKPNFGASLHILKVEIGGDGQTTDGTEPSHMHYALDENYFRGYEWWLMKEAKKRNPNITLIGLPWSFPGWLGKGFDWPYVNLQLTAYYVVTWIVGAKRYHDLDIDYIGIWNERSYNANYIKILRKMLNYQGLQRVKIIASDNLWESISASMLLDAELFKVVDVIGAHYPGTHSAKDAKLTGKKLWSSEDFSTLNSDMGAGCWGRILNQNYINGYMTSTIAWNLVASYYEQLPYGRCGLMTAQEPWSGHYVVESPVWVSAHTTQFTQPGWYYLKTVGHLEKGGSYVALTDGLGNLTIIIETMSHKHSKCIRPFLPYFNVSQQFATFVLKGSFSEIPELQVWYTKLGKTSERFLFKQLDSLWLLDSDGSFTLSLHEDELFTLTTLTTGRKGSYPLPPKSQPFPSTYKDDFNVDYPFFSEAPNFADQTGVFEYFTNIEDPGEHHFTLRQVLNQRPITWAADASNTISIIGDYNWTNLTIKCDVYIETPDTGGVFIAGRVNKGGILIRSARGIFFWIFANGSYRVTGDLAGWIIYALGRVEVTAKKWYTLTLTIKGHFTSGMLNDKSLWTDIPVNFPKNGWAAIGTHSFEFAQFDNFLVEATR
# Assay: A Novel Cell-Based Assay to Identify Small Molecules for B -Galactocerebrosidase; also: 0% is about no effect; nearly all actives have a fitted effect of over 65% in size
# Details: 145M-Twi-hGALC-G270D cells (Twitcher mouse brain line with human GALC G270D), HMU-beta-Gal fluorescence, 48 h; series mostly up to 57.5 µM; activation: at the top concentration
# How it was run: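 Live 145M-Twi cells (Twitcher mouse brain-derived, GALC-null) stably expressing human GALC-G270D, with a wild-type GALC line, were compound-treated. Residual GALC activity was then read as fluorescence from 0.1 mM final HMU-β-gal at pH 5.2; higher signal means activation.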
row,Compound,activation
1,Cc1cccc(NC(=O)Cn2c(=O)n(CCC(=O)N3CCc4ccccc4C3)c(=O)c3ccccc32)c1,inactive: 2.22%
2,Nc1c(C(=O)NCc2ccccc2)nnn1Cc1cccc(Br)c1,inactive: -13.2%
3,CCOc1ccc(NC(=O)NCCN2CCN(c3ccccc3F)CC2)cc1,inactive: -8.84%
4,CC(=O)Nc1ccc(C(=O)CSc2nnc3ccc4ccccc4n23)cc1,inactive: -4.77%
5,CCOC(=O)c1cc2c(=O)n3ccccc3nc2n(C)c1=NC(=O)c1cc2ccccc2o1,inactive: -5.5%
6,Cc1ccc2c(c1)c1c(c(=O)n(-c3ccccc3C)c(=O)n1CC(=O)NCC1CCCO1)n2C (stereo not drawn),inactive: -2.52%
7,Cc1cc(=O)n2nc(N3CCC(C(=O)Nc4ccc(Br)cc4F)CC3)sc2n1,inactive: -8.53%
8,COc1cccc(NC(=O)c2ccc(-c3nc(COc4ccc(C)cc4)c(C)o3)cc2)c1,inactive: -21.4%
9,O=C(CNC(=O)c1ccc(Cl)cc1)OCc1cc(=O)n2nc(C3CCCCC3)sc2n1,inactive: -3.18%
10,Nc1c(C(=O)Nc2ccc(Br)cc2)sc2nc(-c3ccncc3)ccc12,inactive: -28.5%
11,Cc1ccc(C)c(NC(=O)CCCN2C(=O)C(c3ccccc3)Oc3cccnc32)c1 (stereo not drawn),inactive: -15.6%
12,CC(C)(C)c1nnc(NS(=O)(=O)c2ccccc2)s1,inactive: -16.9%
13,COc1ccc(S(=O)(=O)N(CC(=O)Nc2cccc(C)c2)c2ccc(C)cc2)cc1OC,inactive: 2.91%
14,Cc1cc(C)c(NC(=O)CSc2nc(-c3ccc(F)cc3)nc3c2Cc2c(CO)cnc(C)c2O3)c(C)c1,inactive: -4.71%
15,CCCCCCCCCCCC(=O)[O][Sn]([CH2]CCC)([CH2]CCC)[O]C(=O)CCCCCCCCCCC,inactive: -14%
16,COc1ccc(N2CCN(c3ccc(-c4nc(-c5cccc(C)c5)no4)cc3[N+](=O)[O-])CC2)cc1,inactive: -13.2%
17,O=C(NCCC1=CCCCC1)c1ccc2c(c1)N(Cc1cccc(Cl)c1)C(=O)c1ccccc1S2(=O)=O,inactive: -7.46%
18,CCCCSCCCNC(=O)C1CCN(Cc2nc(-c3cccc(Br)c3)oc2C)CC1,inactive: -12%
19,CCOC(=O)C1=C(CN(CC)Cc2ccccc2)NC(=O)NC1c1ccc(OC(C)C)cc1 (stereo not drawn),inactive: -17%
20,COc1ccccc1CNC(=O)c1ccc(N2CCCC2)c(NC(=O)NCc2ccc(F)cc2)c1,inactive: -8.12%
21,CC(C)CN(CCCNC(=O)CN1N=C(c2ccccc2)CCC1=O)CC(C)C,inactive: -17.7%
22,CCOc1ccc(CCNC(=O)c2[nH]c3cc(OC)ccc3c2Sc2ccccc2)cc1OCC,inactive: -11.2%
23,O=C(Cn1ncc2c3ccccc3n(Cc3ccccc3F)c2c1=O)N1CCCCC1,inactive: -15.7%
24,CC(C)c1ccc(NC(=O)CCNS(=O)(=O)c2ccc3c(c2)CCCC(=O)N3)cc1,inactive: -5.55%

row,Compound,activation
1,CCOC(=O)CC(NC(=O)CCc1c(C)nc2ncnn2c1C)c1ccc(OC(C)C)cc1 (stereo not drawn),inactive: 5.62%
2,CCOc1ccc(NC(=O)Cn2c(=O)cc(C)c3c(C)nn(-c4cccc(Cl)c4C)c32)cc1,inactive: -11.7%
3,CCOc1ccc(S(=O)(=O)c2cn(Cc3ccc(OC)cc3)c3ccc(F)cc3c2=O)cc1,inactive: -17.1%
4,Cn1c(=O)[nH]c(=O)c2c1nc1n2CCN1c1ccccc1,inactive: 2.12%
5,CCOc1ccc(C(=O)N2CCN(CCc3ccccn3)CC2)cc1,inactive: -8.06%
6,Cc1ccc(N2CCN(S(=O)(=O)c3nnc(NC(=O)c4ccc(C(C)C)cc4)s3)CC2)cc1,inactive: -13.8%
7,Cc1ccc(-c2nc(S(=O)(=O)c3ccc(C)cc3)c(N3CCCCCC3)o2)cc1,inactive: 4.68%
8,CCOc1ccc(Nc2nc(C)c(NC(=O)c3cccc(OC)c3)c(Nc3ccc(OCC)cc3)n2)cc1,inactive: -40.8%
9,Cc1ccccc1CSc1nc2cccnc2n1Cc1ccc(C(=O)NC2CC2)cc1,inactive: 4.86%
10,CCOC(=O)c1ccccc1NC(=O)CSc1cn(CC(=O)N2CCOCC2)c2ccccc12,inactive: 5.34%
11,COc1ccc(CNC(=O)C2CCC(CNS(=O)(=O)c3cccs3)CC2)cc1 (stereo not drawn),inactive: -3.68%
12,CCOc1ccc(NC(=O)CN2C(C(=O)OC)=C(c3ccccc3)c3cc(Cl)ccc3S2(=O)=O)cc1,inactive: -9.89%
13,COC(=O)C1=C(c2ccccc2)c2ccccc2S(=O)(=O)N1CC(=O)Nc1ccc(OC)cc1OC,inactive: -3.35%
14,Cc1cc(=O)[nH]c2nnc(SCc3ccc(Cl)cc3)n12,inactive: -16.3%
15,Cc1ccc(Cl)cc1-n1ncc2c(N3CCC(C)CC3)ncnc21,inactive: -25.9%
16,Cc1ccc(CNC(=O)CN2CCN(Cc3ccc(F)cc3)C2=O)cc1,inactive: -13.8%
17,Cc1cc2nc(-c3cccc(NC(=O)COc4ccc(Cl)c(C)c4)c3)oc2cc1C,inactive: -6.37%
18,Cc1cccc(N(C)S(=O)(=O)c2c(C(=O)N3CCCCCC3)c(C)n(C)c2C)c1,inactive: 0.706%
19,O=C(NCc1ccccc1)C1CCN(S(=O)(=O)c2ccc3[nH]c(=O)ccc3c2)CC1,inactive: -16%
20,COc1ccc(NC(=O)c2c(NCc3cccc(F)c3)sc3c2CCCC3)c(OC)c1,inactive: -20.1%
21,COc1ccccc1NC(=O)C1CCN(S(=O)(=O)c2cn(C)cn2)CC1,inactive: -21.9%
22,COc1ccccc1-c1cc(NC(=O)COc2ccc(C)c(C)c2)n(-c2ccccc2)n1,inactive: -8.41%
23,COc1ccc(OC)c(NC(=O)CN2CCCN(Cc3cc(C)ccc3C)S2(=O)=O)c1,inactive: -10.4%
24,COc1ccc(-c2cc(C(F)(F)F)nc(SCC(=O)NCc3ccc(Cl)cc3)n2)cc1,inactive: -29.7%
